# Measured values published in the supplement of paper PMC7826260.
# The other results are listed elsewhere or left out. The data describe in vitro nicking of single-stranded DNA by Rep domains (3 µM enzyme, 1 h, 37 °C); shown is the middle of each 90-letter strand. Uncut reads are compared with the no-enzyme pool on a log2 scale; the lower, the more was cut; hits are not called. The scaling is to total reads; values above 0 arise when much of the pool is cut.
# Experiments:
# Experiment in all cases: uncleaved DNA left, log2 of reads against the no-enzyme library (log2 ratio); higher = less cleavage (more negative = more Rep cleavage of the k-mer); sequences stand for … in CTCGTCCG…ACCGGAGA
# [1] = system: T1, Rep nickase domain of Muscovy duck circovirus
# T1 sequence (residues 1-111 of Rep, tag left off): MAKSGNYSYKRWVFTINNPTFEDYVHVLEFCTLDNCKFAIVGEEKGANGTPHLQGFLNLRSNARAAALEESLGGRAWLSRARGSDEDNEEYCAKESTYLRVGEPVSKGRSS
# Method: (§1)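 A pool of 90-nt single-stranded DNAs with seven random bases just before the constant AC of the nick site (name = the seven bases) was cut by 3 µM recombinant His6-SUMO-tagged Rep nickase domain (300 nM DNA, 50 mM HEPES pH 8.0, 50 mM NaCl, 1 mM MnCl2, 1 h, 37 °C, three replicates). Uncut DNA was amplified and sequenced.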
# [2] = system: T2, Rep nickase domain of banana bunchy top virus
# T2 sequence (residues 1-94 of Rep, tag left off): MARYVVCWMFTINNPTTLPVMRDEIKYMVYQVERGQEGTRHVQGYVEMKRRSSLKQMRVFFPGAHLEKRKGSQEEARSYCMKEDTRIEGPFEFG
# Method: as §1
# [3] = system: T3, Rep nickase domain of cabbage leaf curl virus
# T3 sequence (residues 1-116 of Rep, tag left off): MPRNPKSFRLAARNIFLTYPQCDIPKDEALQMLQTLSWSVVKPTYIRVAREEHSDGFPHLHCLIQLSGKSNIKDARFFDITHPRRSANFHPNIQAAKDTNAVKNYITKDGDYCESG
# Method: as §1
# [4] = system: T4, Rep nickase domain of chickpea chlorotic dwarf virus
# T4 sequence (residues 1-124 of Rep, tag left off): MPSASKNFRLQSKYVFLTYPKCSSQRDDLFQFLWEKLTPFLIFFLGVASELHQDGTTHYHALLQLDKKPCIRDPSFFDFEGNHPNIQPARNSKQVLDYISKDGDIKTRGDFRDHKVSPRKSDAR
# Method: as §1
# [5] = system: T5, Rep nickase domain of faba bean necrotic yellows virus
# T5 sequence (residues 1-98 of Rep, tag left off): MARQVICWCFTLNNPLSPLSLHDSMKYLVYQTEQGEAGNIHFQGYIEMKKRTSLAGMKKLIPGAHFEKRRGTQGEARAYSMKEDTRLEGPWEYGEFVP
# Method: as §1
# [6] = system: T6, Rep nickase domain of maize striate mosaic virus
# T6 sequence (residues 1-117 of Rep, tag left off): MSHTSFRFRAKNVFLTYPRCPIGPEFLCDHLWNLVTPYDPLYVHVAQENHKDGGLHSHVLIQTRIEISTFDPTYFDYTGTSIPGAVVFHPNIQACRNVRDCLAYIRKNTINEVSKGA
# Method: as §1
# [7] = system: T7, Rep nickase domain of porcine circovirus 2
# T7 sequence (residues 2-116 of Rep, tag left off): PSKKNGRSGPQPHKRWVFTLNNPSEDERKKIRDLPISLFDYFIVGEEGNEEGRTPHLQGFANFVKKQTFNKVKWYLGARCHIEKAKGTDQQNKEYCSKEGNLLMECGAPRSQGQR
# Method: as §1
# [8] = system: T8, Rep nickase domain of tomato golden mosaic virus
# T8 sequence (residues 1-124 of Rep, tag left off): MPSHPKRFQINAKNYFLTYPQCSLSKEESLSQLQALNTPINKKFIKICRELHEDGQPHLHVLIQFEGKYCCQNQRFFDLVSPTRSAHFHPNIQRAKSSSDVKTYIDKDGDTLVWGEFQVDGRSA
# Method: as §1
# [9] = system: T9, Rep nickase domain of tomato yellow leaf curl virus
# T9 sequence (residues 1-136 of Rep, tag left off): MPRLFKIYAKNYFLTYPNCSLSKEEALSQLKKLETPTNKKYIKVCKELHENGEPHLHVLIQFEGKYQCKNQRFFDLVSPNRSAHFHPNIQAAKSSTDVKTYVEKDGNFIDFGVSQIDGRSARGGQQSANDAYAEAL
# Method: as §1
# [10] = system: T10, Rep nickase domain of wheat dwarf virus
# T10 sequence (residues 1-137 of Rep, tag left off): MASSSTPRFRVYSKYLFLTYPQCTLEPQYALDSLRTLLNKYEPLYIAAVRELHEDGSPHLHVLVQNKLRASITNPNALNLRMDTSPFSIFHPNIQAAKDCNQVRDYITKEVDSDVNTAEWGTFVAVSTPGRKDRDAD
# Method: as §1
Sequence,uncleaved DNA left (log2) [1],uncleaved DNA left (log2) [2],uncleaved DNA left (log2) [3],uncleaved DNA left (log2) [4],uncleaved DNA left (log2) [5],uncleaved DNA left (log2) [6],uncleaved DNA left (log2) [7],uncleaved DNA left (log2) [8],uncleaved DNA left (log2) [9],uncleaved DNA left (log2) [10]
GGAAGCA,0.111,0.0896,0.67,1.4,0.0437,1.69,0.144,0.0876,0.0777,0.121
TAATGTT,-3.87,-3.94,-5.45,-2.47,-3.33,-3.76,-4.22,-4.17,-3.77,-4.82
CATGGAA,-0.0775,-0.0481,0.0297,0.746,-0.0416,0.28,0.116,0.00185,-0.0464,-0.000817
GGCCGTT,-0.0152,-0.00715,0.634,1.22,-0.0628,1.74,-0.0691,-0.0286,-0.00663,0.169
TGACGGC,-0.0633,0.0472,0.0592,0.161,-0.0948,0.375,-0.0766,-0.0872,-0.0665,-0.0494
CTAGCTC,-0.0334,-0.0205,-0.0199,-0.282,-0.065,-0.474,-0.0484,-0.0527,-0.00374,-0.0483
CGACAGC,-0.0648,-0.101,-0.114,0.519,0.0104,0.964,-0.0168,-0.048,-0.149,-0.0309
ATCGTTC,0.163,0.0167,0.00539,-0.576,0.023,-0.694,0.0395,0.137,0.00179,0.0606
ATTACCG,-0.0848,0.0502,-0.851,-1.57,0.0384,-1,0.0043,0.0206,-0.00691,-0.00456
GAGTTTG,0.0226,-0.0418,-0.19,-0.163,-0.181,-0.543,-1.19,-0.066,-0.13,-0.152
CAGAGTG,0.0511,0.0353,-0.422,-0.308,0.061,-0.662,0.127,0.00191,-0.0161,0.00576
TCCCACG,-0.218,-0.00115,-0.837,-1.03,-0.00342,-1.15,-0.106,-0.219,-0.153,-0.116
CCTGGAG,-0.00685,-0.0875,-0.811,-0.339,-0.0387,-1.02,0.0444,-0.0487,-0.0102,-0.0372
AAGCCGT,0.044,-0.0338,-0.212,-0.533,0.125,-0.523,-0.123,0.0995,-0.0996,0.0319
GTGGTAC,-0.101,0.06,0.218,0.684,-0.139,1.84,0.0136,0.066,-0.0388,-0.0236
TCCAACC,-0.212,-0.0785,-0.0448,-1.72,-0.0402,-0.463,-1.14,0.0156,-0.0617,-0.0299
CTCGGGC,0.0738,0.0923,0.193,0.355,-0.0224,0.0941,0.177,0.0543,0.0307,0.0375
GTGATTC,0.0885,0.0767,0.285,0.911,-0.0534,1.82,0.193,0.118,0.102,0.0486
ATAGACT,-0.0124,0.0866,0.0167,-0.789,0.00489,0.729,0.101,0.122,-0.0563,-0.00267
TCAGCTG,-0.108,0.0148,0.194,1.4,-0.18,1.67,0.133,0.0235,-0.215,-0.0904

Sequence,uncleaved DNA left (log2) [1],uncleaved DNA left (log2) [2],uncleaved DNA left (log2) [3],uncleaved DNA left (log2) [4],uncleaved DNA left (log2) [5],uncleaved DNA left (log2) [6],uncleaved DNA left (log2) [7],uncleaved DNA left (log2) [8],uncleaved DNA left (log2) [9],uncleaved DNA left (log2) [10]
GACCGAC,-0.148,-0.125,-0.0864,0.141,0.0913,-0.241,-0.0683,-0.0905,-0.0667,0.0211
CTGGGGT,0.0602,0.0432,0.393,1.08,-0.129,1.45,0.152,0.0258,-0.00398,0.128
CATGCGT,-0.0409,-0.0525,-0.833,0.00493,0.0376,-0.859,-0.0237,-0.133,0.0107,-0.141
AATCCCT,0.0897,-0.0972,-0.128,-2.49,0.162,0.0188,-1.93,0.0288,0.125,0.128
GACTGCC,-0.0533,-0.102,-0.0626,0.294,-0.0854,0.325,-0.055,0.058,-0.128,-0.115
TTGCGGG,-0.0261,-0.0733,-0.663,-0.74,-0.055,-0.894,0.00377,-0.0739,-0.0605,-0.0985
GGTAACG,0.148,0.0235,-0.44,-0.344,0.0657,-0.419,0.182,-0.0747,0.0294,-0.000201
CAGGTCC,0.128,0.189,0.249,0.441,0.166,0.44,0.118,0.194,0.148,0.189
CCGAAAG,-0.00301,-0.028,-0.536,-0.418,0.0939,-0.961,0.17,0.0957,0.0887,-0.215
TACCTCT,0.0924,0.0945,-0.849,-2.81,0.0592,-0.505,-1.96,-0.071,0.067,-0.0994
TCACTCC,-0.0111,-0.0284,0.152,0.124,-0.0892,0.789,0.0744,-0.0499,0.0292,0.00717
TACCCCG,-0.209,-0.166,-1.1,-1.03,-0.149,-1.01,-1.65,-0.21,-0.295,-0.259
GAAGAAC,0.114,0.0867,0.303,0.465,0.121,0.618,0.189,0.0734,0.18,0.137
GGCCTAA,-0.0111,0.0408,0.415,1.14,-0.0827,1.52,0.191,0.0696,0.199,0.00623
CTCACCA,0.0662,0.0394,-0.131,-1.53,-0.0527,-0.47,-0.314,-0.112,0.174,0.126
AGTGTCC,0.0569,0.149,0.263,0.339,0.155,0.726,0.0161,0.07,0.0398,0.0297
CTGTACG,0.178,-0.0405,-0.54,-0.3,-0.0431,-0.875,0.227,0.0214,0.0145,-0.0596
CTTGGTA,0.0122,0.0665,0.36,1.16,0.0126,1.11,-0.0353,0.0935,0.183,-0.000839
ACTGATA,-0.0335,0.00207,-0.247,-0.00865,0.00703,0.444,-0.15,0.0378,-0.145,-0.056
CAGATTA,-0.177,-0.113,-0.301,-2.25,-0.0666,-0.531,-1.48,-0.0341,-0.0589,-0.165

Sequence,uncleaved DNA left (log2) [1],uncleaved DNA left (log2) [2],uncleaved DNA left (log2) [3],uncleaved DNA left (log2) [4],uncleaved DNA left (log2) [5],uncleaved DNA left (log2) [6],uncleaved DNA left (log2) [7],uncleaved DNA left (log2) [8],uncleaved DNA left (log2) [9],uncleaved DNA left (log2) [10]
TACAGTC,-0.0451,0.026,-0.177,-0.848,0.000389,-1,-0.00386,-0.0973,0.0342,-0.0136
CGTAATT,-0.0935,-0.1,0.0218,-1.77,0.00729,-0.327,-1.65,-0.094,0.111,-0.0429
TTCTAAC,-0.0148,0.00539,-0.113,-1.25,0.107,-0.193,0.00539,-0.0276,-0.0368,0.0162
ATGTTTG,0.145,0.00618,-0.387,-0.494,0.0577,-1.03,0.219,0.164,0.176,-0.0276
ACGCCTC,-0.153,-0.0854,0.0483,0.23,-0.194,0.634,-0.02,-0.0444,-0.115,0.0151
GCACCAT,-0.00148,-0.0565,0.189,0.411,-0.0431,0.51,-0.0306,-0.124,-0.144,0.0387
ATAACCT,-0.0611,0.0165,-0.383,-2.39,0.0474,-0.652,-0.697,-0.0204,-0.0679,0.0228
TGAGTCT,-0.0815,-0.0247,-0.0814,-1.38,-0.0541,-0.253,-0.167,-0.143,-0.0594,-0.0895
CTGCAGA,-0.128,-0.207,-0.565,-0.659,-0.0317,-1.17,0.0442,-0.0879,-0.0415,-0.0986
GCAACCT,-0.0287,0.119,-0.0931,-1.49,-0.0893,-0.026,-0.868,-0.0664,0.0669,0.015
CATCATC,-0.0123,-0.061,0.0629,-0.242,-0.0421,-0.73,0.0657,-0.0792,-0.00686,-0.143
CACCCCG,-0.0341,0.00452,-0.751,-0.0378,0.0518,-0.836,-0.471,-0.0321,-0.0872,-0.146
GGACTCT,0.137,0.129,0.734,1.6,0.0503,2.19,0.169,-0.0352,0.107,0.266
CTTGCTC,-0.141,-0.0549,-0.461,-0.922,-0.041,-1.08,0.0706,-0.126,-0.0639,-0.113
TTCCAAT,-0.0107,0.046,0.0757,-0.193,-0.115,-0.256,-0.168,-0.116,-0.0629,-0.00921
CTTTTGG,-0.0223,0.0307,-0.224,-0.185,0.0852,-0.768,0.0588,0.0147,0.0493,-0.0364
AGTATCT,0.0723,-0.0211,0.0831,-1.46,-0.116,0.169,-3.27,0.0533,0.0526,0.0232
ACCGCAT,0.0358,-0.112,-0.0991,-0.0768,0.186,-0.384,0.203,0.11,-0.0791,-0.14
TTTAGCT,-0.0265,-0.107,-0.472,-1.62,-0.0442,-1.15,-0.163,-0.0832,0.0144,-0.171
ACTGGTA,-0.0423,-0.0554,-0.102,0.294,-0.0972,0.679,0.046,0.0056,0.0542,0.00548
